Laboratory results from the CheMixHub viscosity set.
This continues a long series; more values of the same kind are listed elsewhere.

Experiment: xn = mol fraction of the nth substance listed

C1CCOC1 + O
Conditions	viscosity [mPa·s]
298 K, 101.3 kPa, x1 = 0.027	1.199
298 K, 101.3 kPa, x1 = 0.059	1.5
298 K, 101.3 kPa, x1 = 0.097	1.71
298 K, 101.3 kPa, x1 = 0.14	1.785
298 K, 101.3 kPa, x1 = 0.2	1.718
298 K, 101.3 kPa, x1 = 0.27	1.529
298 K, 101.3 kPa, x1 = 0.37	1.259
298.15 K, 101.3 kPa, x1 = 0.0588	1.49
298.15 K, 101.3 kPa, x1 = 0.1427	1.732
298.15 K, 101.3 kPa, x1 = 0.2725	1.49
298.15 K, 101.3 kPa, x1 = 0.4998	0.9234
308.15 K, 101 kPa, x1 = 0.1001	1.317
308.15 K, 101 kPa, x1 = 0.1199	1.345
308.15 K, 101 kPa, x1 = 0.1499	1.364
308.15 K, 101 kPa, x1 = 0.1699	1.358
308.15 K, 101 kPa, x1 = 0.2	1.325
308.15 K, 101 kPa, x1 = 0.2199	1.288
308.15 K, 101 kPa, x1 = 0.25	1.232
308.15 K, 101 kPa, x1 = 0.2701	1.204
308.15 K, 101 kPa, x1 = 0.3002	1.141
308.15 K, 101 kPa, x1 = 0.3499	1.054
308.15 K, 101 kPa, x1 = 0.3999	0.9465
308.15 K, 101 kPa, x1 = 0.4499	0.8537
308.15 K, 101 kPa, x1 = 0.5001	0.7841
308.15 K, 101 kPa, x1 = 0.5998	0.6571
308.15 K, 101 kPa, x1 = 0.7001	0.5626
308.15 K, 101 kPa, x1 = 0.8001	0.4917
308.15 K, 101 kPa, x1 = 0.9	0.4426
313.15 K, 101 kPa, x1 = 0.02	0.8139
313.15 K, 101 kPa, x1 = 0.05	0.9944
313.15 K, 101 kPa, x1 = 0.07	1.085
313.15 K, 101 kPa, x1 = 0.1001	1.161
313.15 K, 101 kPa, x1 = 0.1199	1.186
313.15 K, 101 kPa, x1 = 0.1499	1.204
313.15 K, 101 kPa, x1 = 0.1699	1.203
313.15 K, 101 kPa, x1 = 0.2	1.177
313.15 K, 101 kPa, x1 = 0.2199	1.146
313.15 K, 101 kPa, x1 = 0.25	1.094
313.15 K, 101 kPa, x1 = 0.3499	0.9442
313.15 K, 101 kPa, x1 = 0.3999	0.8569
313.15 K, 101 kPa, x1 = 0.4499	0.7789
313.15 K, 101 kPa, x1 = 0.5001	0.7128
313.15 K, 101 kPa, x1 = 0.5998	0.6065
313.15 K, 101 kPa, x1 = 0.7001	0.5207
313.15 K, 101 kPa, x1 = 0.8001	0.4565
313.15 K, 101 kPa, x1 = 0.9	0.4115
318.15 K, 101 kPa, x1 = 0.02	0.7338
318.15 K, 101 kPa, x1 = 0.05	0.8851
318.15 K, 101 kPa, x1 = 0.07	0.9613
318.15 K, 101 kPa, x1 = 0.1001	1.031
318.15 K, 101 kPa, x1 = 0.1199	1.052
318.15 K, 101 kPa, x1 = 0.1499	1.071
318.15 K, 101 kPa, x1 = 0.1699	1.07
318.15 K, 101 kPa, x1 = 0.2	1.054
318.15 K, 101 kPa, x1 = 0.2199	1.012
318.15 K, 101 kPa, x1 = 0.25	0.9698
318.15 K, 101 kPa, x1 = 0.2701	0.9661
318.15 K, 101 kPa, x1 = 0.3002	0.9237
318.15 K, 101 kPa, x1 = 0.3499	0.853
318.15 K, 101 kPa, x1 = 0.3999	0.7737
318.15 K, 101 kPa, x1 = 0.4499	0.7082
318.15 K, 101 kPa, x1 = 0.5001	0.6494
318.15 K, 101 kPa, x1 = 0.5998	0.5508
318.15 K, 101 kPa, x1 = 0.7001	0.4792
318.15 K, 101 kPa, x1 = 0.8001	0.4231
318.15 K, 101 kPa, x1 = 0.9	0.374
